The record followed here is paper PMC5341030.

Sequences of proteins named here, by UniProt entry; tags and fusion partners are left off.
UniProt Q9C4Z6: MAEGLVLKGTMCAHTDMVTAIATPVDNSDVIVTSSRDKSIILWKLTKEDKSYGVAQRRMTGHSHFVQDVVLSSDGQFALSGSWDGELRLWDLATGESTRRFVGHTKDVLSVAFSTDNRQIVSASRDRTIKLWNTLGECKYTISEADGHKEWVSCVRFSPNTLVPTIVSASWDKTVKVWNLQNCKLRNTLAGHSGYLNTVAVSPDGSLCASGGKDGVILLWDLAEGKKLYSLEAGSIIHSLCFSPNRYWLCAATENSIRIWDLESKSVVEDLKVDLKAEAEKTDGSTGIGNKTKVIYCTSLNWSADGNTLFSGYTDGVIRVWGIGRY
UniProt Q7G1L2: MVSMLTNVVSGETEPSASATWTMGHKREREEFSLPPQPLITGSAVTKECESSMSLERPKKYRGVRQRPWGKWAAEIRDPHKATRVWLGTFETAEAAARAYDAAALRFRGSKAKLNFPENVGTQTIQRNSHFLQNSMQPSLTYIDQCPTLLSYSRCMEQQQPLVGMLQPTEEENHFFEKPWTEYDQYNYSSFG

Results are given in words; binding and its absence hold for the method and conditions named. In cells and extracts the contact can be indirect. Some results given as binding are weak or reduced against the parent protein; the word gives no strength. For some assays here: Tags and fused reporters may be left off the sequences shown.

In assay [1] the target is T1, GST-SCE1A (Arabidopsis) (UniProt Q42551).
T1 sequence: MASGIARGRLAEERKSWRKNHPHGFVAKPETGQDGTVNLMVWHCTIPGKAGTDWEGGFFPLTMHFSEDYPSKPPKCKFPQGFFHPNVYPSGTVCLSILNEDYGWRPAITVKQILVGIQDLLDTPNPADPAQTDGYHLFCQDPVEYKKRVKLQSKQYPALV
The assay can be described thus: pull-down; GST-SCE1A (or GST) as bait on glutathione-Sepharose beads, HA-RACK1B recombinant protein as prey (E. coli crude extract); binding buffer 50 mM Tris-HCl pH 7.8, 200 mM NaCl, 1% Triton X-100, 10% glycerol; 1 h on ice; immunoblot; only the target purified. On the technique in general: In western blotting, separated proteins are transferred to a membrane and probed.

In assay [2] the target is T2, GST-SIZ1 (Arabidopsis) (UniProt Q680Q4).
T2 sequence: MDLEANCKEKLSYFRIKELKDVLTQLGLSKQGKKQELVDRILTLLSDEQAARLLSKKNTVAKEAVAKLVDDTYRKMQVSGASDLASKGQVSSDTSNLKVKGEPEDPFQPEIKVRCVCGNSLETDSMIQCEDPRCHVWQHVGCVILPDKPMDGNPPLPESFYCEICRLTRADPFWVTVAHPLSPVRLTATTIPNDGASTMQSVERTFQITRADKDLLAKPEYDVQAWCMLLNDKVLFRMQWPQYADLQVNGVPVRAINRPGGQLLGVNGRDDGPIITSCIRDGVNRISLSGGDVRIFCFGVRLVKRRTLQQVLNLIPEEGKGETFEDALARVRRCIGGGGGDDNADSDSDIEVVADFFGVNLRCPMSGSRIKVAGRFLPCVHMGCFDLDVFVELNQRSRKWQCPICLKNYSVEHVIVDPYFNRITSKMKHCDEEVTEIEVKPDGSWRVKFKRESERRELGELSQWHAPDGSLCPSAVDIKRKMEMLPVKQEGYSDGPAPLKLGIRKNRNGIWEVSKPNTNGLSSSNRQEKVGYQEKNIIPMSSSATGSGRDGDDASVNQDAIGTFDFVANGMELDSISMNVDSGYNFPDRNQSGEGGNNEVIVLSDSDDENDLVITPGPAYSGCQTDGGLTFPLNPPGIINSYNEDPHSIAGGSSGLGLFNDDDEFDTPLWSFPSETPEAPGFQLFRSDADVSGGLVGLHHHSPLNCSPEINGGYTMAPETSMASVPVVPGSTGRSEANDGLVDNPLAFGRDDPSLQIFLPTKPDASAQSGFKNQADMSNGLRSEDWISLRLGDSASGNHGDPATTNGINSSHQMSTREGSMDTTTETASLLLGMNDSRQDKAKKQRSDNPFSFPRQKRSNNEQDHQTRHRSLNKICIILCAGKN
The assay can be described thus: pull-down; 500 uL crude extract of GST-SIZ1 bound to 30 uL glutathione-Sepharose beads, washed, then 200 uL crude extract of His-HA-RACK1B, 1 h on ice; binding buffer 50 mM Tris-HCl pH 7.8, 200 mM NaCl, 1% Triton X-100, 10% glycerol; immunoblot; only the target purified.

Assay [3] deals with GST-RACK1B (Arabidopsis) (UniProt Q9C4Z6). The assay can be described thus: pull-down; 100 uL crude extract of GST-RACK1B as bait on glutathione-Sepharose beads, equal volumes of crude extracts of His-HA-RAP2.6 or truncated RAP2.6 as prey, 1 h on ice; binding buffer 50 mM Tris-HCl pH 7.8, 200 mM NaCl, 1% Triton X-100, 10% glycerol; immunoblot with anti-HA; only the target purified.

Assay [4] concerns the target HA-RAP2.6 (Arabidopsis) (UniProt Q7G1L2). The assay can be described thus: co-IP; Myc-RACK1B and HA-RAP2.6 co-expressed in Col-0 mesophyll protoplasts, with or without 50 uM ABA for 20 h; precipitation with anti-HA antibodies and protein G agarose, lysis buffer A (25 mM Tris-HCl, 200 mM NaCl pH 7.8, 2 mM DTT, 1% Triton X-100, 1 mM PMSF), 4 °C; immunoblot.
Assay [5] addresses RACK1B (co-immunoprecipitation with HPY2) (Arabidopsis) (UniProt Q9C4Z6). The assay can be described thus: co-IP; co-immunoprecipitation of RACK1B and HPY2 (Supplementary Fig. 2D); constructs and cells not described in the main text.

Consider “His-HA-RACK1B (from UniProt Q9C4Z6 1-326)”, for which the binding result in assay [1] and in assay [2] was “binds” in each case.
Consider “His-HA-RAP2.6 (from UniProt Q7G1L2 1-192)”, for which, in assay [3], the binding entry was “binds”.
In the case of Myc-RACK1B (from UniProt Q9C4Z6 1-326), the binding result in assay [4] is listed as “binds”.

B1: HPY2 (enzyme, UniProt Q8GYH7 1-249)
chain: MASASSSDGVAGRIQNASLVLVSDNSSTLADIRKAVAMMKNIAVQLEKENQTDKVKDLENSVAELLDLHSDCNHRSTAIQSVANRYQPVEQLTDFKKLLDDEFTKLKATPSSVPQNDHLMRQFREAVWNVHHAGEPMPGDDDEDIVMTSTQCPLLNMTCPLSGKPVTELADPVRSMDCRHVYEKSVILHYIVNNPNANCPVAGCRGKLQNSKVICDAMLKFEIEEMRSLNKQSNRAEVIEDFTEDVDED
Regarding B1, the binding result in assay [5] was “no binding”.
